Each structure is given as a SMILES string. Values joined by “and” are separate entries in the source; they are usually repeats but may differ in a detail not shown here. Equal entries are not always repeated. The list shows a part of the results. Shown are side measurements of this screen, not its main read-out; they come without a call. Compounds called inactive in the main read-out are mostly missing here. Potencies come from curve fits of mixed quality, noted in brackets.

The values below come from PubChem BioAssay (NCATS).
Tags describe the fitted curve by direction and shape.

This assay is described as follows: qHTS Assay for Lipid Storage Modulators (AID 1519). Particulars: Drosophila S3 cells, BODIPY lipid droplet/cell ratio, laser cytometry; measured here: lipid (BODIPY) channel AC50; cells loaded with oleic acid. In outline:
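Cells seeded at 5,000 per well were treated with compounds over a concentration series and loaded with oleic acid (400 uM, as added). Lipid droplet fluorescence (488 nm excitation, 500-530 nm channel) was read by laser-scanning cytometry and normalized to 20 uM Triacsin C.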
(In general: Quantitative high-throughput screening tests each substance at several concentrations.)
Take `CC[C@]1(O)CC(O[C@@H]2CC(N(C)C)C(O)C(C)O2)c2c(cc3c(c2O)C(=O)c2c(O)ccc(O)c2C3=O)C1C(=O)OC` (stereo partly specified): the half-maximal activity concentration (AC50) is 14.1 µM [falling, partial curve].

As for `O=c1[nH]oc2c1CCNC2`, the AC50 is 6.31 µM [rising, single point].

In the case of `S=C(NC1CCCCC1)N1CCC(c2cnc[nH]2)CC1`, the AC50 is 3.98 µM [rising, partial curve, poor fit].

With `C[C@@H](N)Cn1ccc2cc(F)c(Cl)cc21`, the AC50 was 3.98 µM [rising, full curve, poor fit].

Consider `COc1cc2c(cc1OC)[C@@H]1C(=O)c3ccc4c(c3OC1CO2)CC(C(C)C)O4` (stereo partly specified), for which the AC50 is 0.316 µM [falling, full curve].

With `CN(C)C(=O)Oc1cccc([N+](C)(C)C)c1`, the AC50 is 0.631 µM [falling, full curve, poor fit].

On to `Oc1cc2c(cc1O)[C@H]1c3ccccc3CN[C@H]1CC2`, for which the AC50 is 39.8 µM [rising, single point].

Take `C=CC1CN2CCC1CC2C(O)c1ccnc2ccccc12` (stereo unspecified): the AC50 was 25.1 µM [rising, partial curve].

In the case of `C/C(=C\C=C/[C@@H](C)C(=O)O)[C@H]1CN[C@H](C(=O)O)[C@@H]1CC(=O)O`, the AC50 is 15.8 µM [rising, single point].

For `COc1ccc(CC2NCC(O)C2OC(C)=O)cc1` (stereo unspecified), the AC50 was 0.398 µM [rising, full curve, poor fit].

For `COc1cc2c(cc1O)-c1c(O)c(OC)cc3c1[C@H](C2)N(C)CC3`, the AC50 is 12.6 µM [rising, partial curve].

With `Cn1c(=O)c2[nH]cnc2n(C)c1=O`, the AC50 is 3.55 µM [falling, full curve, poor fit].

On to `CCCCCCC[n+]1ccc(-c2cc[n+](CCCCCCC)cc2)cc1`, for which the AC50 is 44.7 µM [falling, single point].

Regarding `NP(N)(=O)NC(=O)c1ccc(F)cc1`, the AC50 is 14.1 µM [rising, single point].

`CN1Cc2ccccc2[C@@H]2c3cccc4[nH]cc(c34)C[C@H]21`: the half-maximal activity concentration (AC50) is 0.631 µM [rising, full curve, poor fit].

`NC(=O)CN1CCCC1=O`: the AC50 was 0.0178 µM [falling, full curve, poor fit].

For `CC1=C(O)C(=O)C=C2C1=CC=C1[C@]2(C)CC[C@@]2(C)C3C[C@](C)(C(=O)O)CC[C@@]3(C)CC[C@@]12C` (stereo partly specified), the half-maximal activity concentration (AC50) was 10 µM [falling, partial curve].

Take `CC(C)CN1CC[C@@]2(CCCN(C(=O)Oc3ccccc3)C2)C1`: the AC50 is 0.891 µM [rising, full curve].

Take `CC(C)[C@H](CO)Nc1nc(Nc2cccc(Cl)c2)c2ncn(C(C)C)c2n1`: the AC50 was 0.794 µM [rising, full curve, poor fit].

Consider `NCCc1c[nH]c2ccc(O)cc12`, for which the AC50 is 44.7 µM [falling, partial curve, poor fit].

With `O=C(/C=C\c1ccc(Cl)cc1)N[C@@]12CCC(=O)[C@@H]3Oc4c(O)ccc5c4[C@@]31CCN(CC1CC1)[C@@H]2C5`, the AC50 is 3.16 µM [rising, full curve, poor fit].

Consider `COc1c2c(c(CC=C(C)C)c3oc(=O)c(-c4ccc(O)cc4)c(O)c13)OC(C)(C)C=C2`, for which the AC50 was 39.8 µM [rising, partial curve, poor fit].

With `O=C(Oc1ccccc1)N1CCC2(CC1)CN(Cc1ccncc1)C2`, the AC50 is 0.02 µM [rising, full curve, poor fit].

Take `CN[C@@H]1C[C@H](c2ccc(Cl)c(Cl)c2)c2ccccc21`: the AC50 is 6.31 µM [rising, full curve].

As for `O=C(Nc1cccc(F)c1)N1CCCC2(CCN(C(=O)Oc3ccccc3)CC2)C1`, the AC50 is 1.58 µM [rising, full curve].

Regarding `CC(C)=CCCC1(C)C=Cc2c(O)c3c(c(CC=C(C)C)c2O1)OC12C(=CC4CC1C(C)(C)OC2(C/C=C(/C)C(=O)O)C4=O)C3=O` (stereo unspecified), the AC50 was 7.08 µM [falling, partial curve].

Consider `OCC(O)Cc1ccc2c(c1)OCO2` (stereo unspecified), for which the AC50 was 39.8 µM [rising, single point].

`COc1cc(CNC(=O)CCCC/C=C\C(C)C)ccc1O`: the AC50 is 6.31 µM [rising, full curve, poor fit] and 28.2 µM [rising, partial curve, poor fit].

For `Cc1[nH]c2ccc(O)cc2c1CCN`, the AC50 is 39.8 µM [rising, single point].

Take `c1csc(CN2CCCC3(CCNCC3)C2)n1`: the AC50 is 1.26 µM [rising, partial curve].

Turning to `CN1[C@@H]2CC[C@H]1CC(OC(c1ccc(F)cc1)c1ccc(F)cc1)C2` (stereo partly specified), the AC50 is 0.708 µM [rising, full curve, poor fit].

On to `CC[C@@H]1CN2CCc3cc(OC)c(OC)cc3[C@@H]2C[C@@H]1C[C@H]1NCCc2cc(OC)c(OC)cc21`, for which the AC50 was 0.447 µM [rising, full curve, poor fit].

Take `Cc1ccc2oc(-c3ccccc3)cc(=O)c2c1`: the AC50 is 2.24 µM [rising, full curve].

For `COc1cc2c(cc1OC)-c1c(OC)c(OC)c(CO)c3c1C(C2)N(C)CC3` (stereo unspecified), the concentration at half-maximal activity (AC50) is 1.12 µM [rising, full curve].

Regarding `O=C(Cc1ccc(Cl)c(Cl)c1)N1CCCC[C@H]1CN1CCCC1`, the AC50 was 31.6 µM [rising, partial curve, poor fit].

With `O=C1CCc2c(ccc3ccccc23)O1`, the AC50 was 17.8 µM [rising, full curve].

The term AC50 denotes the concentration at which the activity in the assay is half-maximal.
